The record followed here is patent publication US20240139156A1, “COMBINATION TREATING PROSTATE CANCER, PHARMACEUTICAL COMPOSITION AND TREATMENT METHOD” (KANGPU BIOPHARMACEUTICALS, LTD., priority 2017, published 2024).

In this test the test system is Vcap cells (androgen receptor (+) prostate cancer cells). The test can be described thus: CTG cell proliferation assay (CellTiter-Glo), compounds alone or in combination. To be noted: for viability at 1 µM / viability at 10 µM: Homo sapiens, VCaP, 120 h, read-out: Survival rate of Vcap cells; for effect of tested compound in combination with the other therapeutic agents (prednisone, Galeterone, Abiraterone acetate, ODM-201): Vcap cell survival, without B001, summary in words. (In general: Cellular ATP, detected with luciferase, serves as a proxy for viable cell number.)

[1] abbreviates: 1 μM tested compound in combination with 1 μM Abiraterone acetate.
Setting [2] is: 1 μM tested compound in combination with 1 μM B001.
The mark [3] stands for this setting: 1 μM tested compound in combination with 1 μM B001 and 1 μM Abiraterone acetate.
Setting [4] is: 1 μM tested compound in combination with 1 μM B001 and 1 μM Galeterone.
[5] abbreviates: 1 μM tested compound in combination with 1 μM B001 and 1 μM ODM-201.
Where [6] appears, read: 1 μM tested compound in combination with 1 μM B001 and 1 μM prednisone.
The mark [7] stands for this setting: 1 μM tested compound in combination with 1 μM B001 and 1 μM prednisone and 1 μM Abiraterone acetate.
[8] abbreviates: 1 μM tested compound in combination with 1 μM B001 and 1 μM prednisone and 1 μM Galeterone.
The mark [9] stands for this setting: 1 μM tested compound in combination with 1 μM B001 and 1 μM prednisone and 1 μM ODM-201.
The mark [10] stands for this setting: 1 μM tested compound in combination with 1 μM Galeterone.
The mark [11] stands for this setting: 1 μM tested compound in combination with 1 μM ODM-201.
Where [12] appears, read: 1 μM tested compound in combination with 1 μM prednisone.
Setting [13] is: 10 μM tested compound in combination with 1 μM Abiraterone acetate.
Setting [14] is: 10 μM tested compound in combination with 1 μM B001.
The mark [15] stands for this setting: 10 μM tested compound in combination with 1 μM B001 and 1 μM Abiraterone acetate.
Where [16] appears, read: 10 μM tested compound in combination with 1 μM B001 and 1 μM Galeterone.
[17] abbreviates: 10 μM tested compound in combination with 1 μM B001 and 1 μM ODM-201.
[18] abbreviates: 10 μM tested compound in combination with 1 μM B001 and 1 μM prednisone.
Where [19] appears, read: 10 μM tested compound in combination with 1 μM B001 and 1 μM prednisone and 1 μM Abiraterone acetate.
[20] abbreviates: 10 μM tested compound in combination with 1 μM B001 and 1 μM prednisone and 1 μM Galeterone.
Where [21] appears, read: 10 μM tested compound in combination with 1 μM B001 and 1 μM prednisone and 1 μM ODM-201.
The mark [22] stands for this setting: 10 μM tested compound in combination with 1 μM Galeterone.
[23] abbreviates: 10 μM tested compound in combination with 1 μM ODM-201.
Where [24] appears, read: 10 μM tested compound in combination with 1 μM prednisone.

Structures are written as SMILES.

`CC1(C)C(=O)N(c2ccc(C#N)c(C(F)(F)F)c2F)C(=S)N1c1ccc(CCCc2ncco2)nc1` [AR2-5]: the viability at 1 µM amounted to 86.2%; the viability at 10 µM is 71.2%; the “effect of tested compound in combination with the other therapeutic agents (prednisone, Galeterone, Abiraterone acetate, ODM-201)” value (“effect of tested compound in combination” below) is “did not improve significantly”. Besides, the “Survival rate of Vcap cells” value under setting [1] is given as 80.0%. Besides, under setting [2], the “Survival rate of Vcap cells” value was found to be 68.577%. Also, the “Survival rate of Vcap cells” value under setting [3] was found to be 66.6%. For the same molecule, the “Survival rate of Vcap cells” value under setting [4] is 68.6%. Moreover, the “Survival rate of Vcap cells” value under setting [5] is listed as 57.3%. Besides, the “Survival rate of Vcap cells” value under setting [6] was 67.2%. The “Survival rate of Vcap cells” value under setting [7] amounted to 72.2%. Moreover, the “Survival rate of Vcap cells” value under setting [8] is given as 71.5%. Moreover, the “Survival rate of Vcap cells” value under setting [9] is 65.6%. Also, under setting [10], the “Survival rate of Vcap cells” value is given as 81.6%. Moreover, the “Survival rate of Vcap cells” value under setting [11] is 75.7%. Moreover, the “Survival rate of Vcap cells” value under setting [12] turned out to be 89.0%. The “Survival rate of Vcap cells” value under setting [13] stood at 68.4%. The “Survival rate of Vcap cells” value under setting [14] came to 58.564%. The “Survival rate of Vcap cells” value under setting [15] amounted to 60.0%. Also, the “Survival rate of Vcap cells” value under setting [16] came out at 62.7%. Further, the “Survival rate of Vcap cells” value under setting [17] worked out at 58.6%. Moreover, the “Survival rate of Vcap cells” value under setting [18] is given as 56.1%. Under setting [19], the “Survival rate of Vcap cells” value was found to be 57.3%. For the same molecule, the “Survival rate of Vcap cells” value under setting [20] turned out to be 58.4%. For the same molecule, the “Survival rate of Vcap cells” value under setting [21] was determined as 59.6%. The “Survival rate of Vcap cells” value under setting [22] was determined as 71.1%. The “Survival rate of Vcap cells” value under setting [23] came out at 70.3%. In addition, the “Survival rate of Vcap cells” value under setting [24] is 71.8%.
As for `CNC(=O)CCCc1ccc(N2C(=S)N(c3ccc(C#N)c(C(F)(F)F)c3F)C(=O)C2(C)C)cc1F` [AR2-3], the viability at 1 µM was determined as 73%; the viability at 10 µM was found to be 57.5%; the “effect of tested compound in combination” value is on record as “did not improve significantly”. Under setting [1], the “Survival rate of Vcap cells” value stood at 74.1%. In addition, under setting [2], the “Survival rate of Vcap cells” value was 52.695%. Also, under setting [3], the “Survival rate of Vcap cells” value came out at 47.0%. Besides, under setting [4], the “Survival rate of Vcap cells” value was 45.2%. Further, under setting [5], the “Survival rate of Vcap cells” value turned out to be 47.4%. The “Survival rate of Vcap cells” value under setting [6] stood at 51.7%. In addition, under setting [7], the “Survival rate of Vcap cells” value turned out to be 57.7%. Also, the “Survival rate of Vcap cells” value under setting [8] is listed as 56.0%. Further, under setting [9], the “Survival rate of Vcap cells” value is listed as 61.9%. Further, the “Survival rate of Vcap cells” value under setting [10] turned out to be 75.8%. Moreover, the “Survival rate of Vcap cells” value under setting [11] is reported as 79.9%. In addition, the “Survival rate of Vcap cells” value under setting [12] worked out at 78.6%. In addition, the “Survival rate of Vcap cells” value under setting [13] is listed as 61.4%. In addition, under setting [14], the “Survival rate of Vcap cells” value came to 45.283%. The “Survival rate of Vcap cells” value under setting [15] was determined as 40.6%. Besides, the “Survival rate of Vcap cells” value under setting [16] turned out to be 40.1%. In addition, the “Survival rate of Vcap cells” value under setting [17] is listed as 42.3%. The “Survival rate of Vcap cells” value under setting [18] came out at 40.7%. In addition, under setting [19], the “Survival rate of Vcap cells” value is 51.9%. For the same molecule, the “Survival rate of Vcap cells” value under setting [20] was found to be 51.9%. Also, the “Survival rate of Vcap cells” value under setting [21] is 54.5%. The “Survival rate of Vcap cells” value under setting [22] was found to be 61.8%. Further, the “Survival rate of Vcap cells” value under setting [23] is 65.4%. The “Survival rate of Vcap cells” value under setting [24] is on record as 60.4%.
Take `Nc1cccc2c1CN(C1CCC(=O)NC1=O)C2=O` (stereo not shown) [Compound B001]: the viability at 1 µM stood at 75.8% and the viability at 10 µM amounted to 74.1%.
For `C[C@]12C=CC(=O)C=C1CC[C@@H]1[C@@H]2C(=O)C[C@@]2(C)[C@H]1CC[C@]2(O)C(=O)CO` [Prednisone, reference compound] the same measures were 91.8% and 81.4%.
`CC1(C)C(=O)N(c2ccc(C#N)c(C(F)(F)F)c2F)C(=S)N1c1ccc(CCCC#N)c(F)c1` [AR2-4]: the viability at 1 µM is 73.5%; the viability at 10 µM was 41%; the “effect of tested compound in combination” value is reported as “did not improve significantly”. Moreover, the “Survival rate of Vcap cells” value under setting [1] turned out to be 71.2%. Besides, under setting [2], the “Survival rate of Vcap cells” value is on record as 53.165%. Under setting [3], the “Survival rate of Vcap cells” value was 52.7%. Further, the “Survival rate of Vcap cells” value under setting [4] was 52.9%. In addition, under setting [5], the “Survival rate of Vcap cells” value was determined as 55.8%. Under setting [6], the “Survival rate of Vcap cells” value worked out at 55.6%. Further, the “Survival rate of Vcap cells” value under setting [7] is on record as 49.4%. Besides, the “Survival rate of Vcap cells” value under setting [8] came to 54.8%. For the same molecule, the “Survival rate of Vcap cells” value under setting [9] is 50.9%. Also, the “Survival rate of Vcap cells” value under setting [10] is 72.4%. Moreover, the “Survival rate of Vcap cells” value under setting [11] is reported as 74.1%. Also, the “Survival rate of Vcap cells” value under setting [12] was determined as 75.9%. The “Survival rate of Vcap cells” value under setting [13] was determined as 42.4%. Besides, under setting [14], the “Survival rate of Vcap cells” value stood at 32.946%. The “Survival rate of Vcap cells” value under setting [15] turned out to be 33.3%. In addition, the “Survival rate of Vcap cells” value under setting [16] amounted to 30.7%. The “Survival rate of Vcap cells” value under setting [17] is 33.9%. The “Survival rate of Vcap cells” value under setting [18] is 34.2%. The “Survival rate of Vcap cells” value under setting [19] came out at 31.1%. Further, the “Survival rate of Vcap cells” value under setting [20] amounted to 31.2%. Under setting [21], the “Survival rate of Vcap cells” value is 29.2%. Besides, under setting [22], the “Survival rate of Vcap cells” value is reported as 38.4%. Also, under setting [23], the “Survival rate of Vcap cells” value worked out at 42.3%. Further, under setting [24], the “Survival rate of Vcap cells” value is on record as 42.3%.
As to `CC1(C)C(=O)N(c2ccc(C#N)c(C(F)(F)F)c2)C(=S)N1c1ccc(OC[C@@H](O)CO)cc1` [AR3-3], the viability at 1 µM was 83.5%; the viability at 10 µM was 68.7%; the “effect of tested compound in combination” value is given as “did not improve significantly”. The “Survival rate of Vcap cells” value under setting [1] was found to be 75.0%. Moreover, under setting [2], the “Survival rate of Vcap cells” value is recorded as 59.220%. For the same molecule, the “Survival rate of Vcap cells” value under setting [3] is recorded as 58.5%. Besides, the “Survival rate of Vcap cells” value under setting [4] is given as 54.6%. For the same molecule, the “Survival rate of Vcap cells” value under setting [5] worked out at 56.7%. Besides, the “Survival rate of Vcap cells” value under setting [6] turned out to be 68.4%. In addition, under setting [7], the “Survival rate of Vcap cells” value is recorded as 57.0%. In addition, the “Survival rate of Vcap cells” value under setting [8] is 59.0%. Under setting [9], the “Survival rate of Vcap cells” value is listed as 48.4%. Besides, the “Survival rate of Vcap cells” value under setting [10] is 78.0%. Further, under setting [11], the “Survival rate of Vcap cells” value is reported as 74.0%. In addition, under setting [12], the “Survival rate of Vcap cells” value stood at 82.3%. Under setting [13], the “Survival rate of Vcap cells” value was found to be 57.5%. In addition, the “Survival rate of Vcap cells” value under setting [14] turned out to be 45.721%. Further, the “Survival rate of Vcap cells” value under setting [15] is reported as 43.6%. Under setting [16], the “Survival rate of Vcap cells” value is given as 48.1%. In addition, the “Survival rate of Vcap cells” value under setting [17] was determined as 50.3%. Besides, the “Survival rate of Vcap cells” value under setting [18] is recorded as 49.1%. Besides, under setting [19], the “Survival rate of Vcap cells” value stood at 42.3%. Further, the “Survival rate of Vcap cells” value under setting [20] was found to be 45.7%. For the same molecule, under setting [21], the “Survival rate of Vcap cells” value came out at 45.6%. Moreover, under setting [22], the “Survival rate of Vcap cells” value came out at 62.2%. Further, the “Survival rate of Vcap cells” value under setting [23] turned out to be 64.5%. For the same molecule, under setting [24], the “Survival rate of Vcap cells” value is recorded as 60.3%.
